The list shows a part of the results.
The sequences below were run against no compound (DMSO) (assay: log2 fold change of degron read counts, EGFP-low vs EGFP+ sorted cells; higher = lower degron-EGFP level without compound (poor expression or instability)). Details: compound: DMSO control; 18 h.
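Also: jurkat cells carrying a lentiviral library of mutant zinc finger degrons fused to EGFP plus mCherry, mCherry+ cells FACS sorted, degron abundance counted by next-generation sequencing.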

Sequence	log2 fold change of degron read counts
FSCDQCGAPFTQKGNLLRHIKL	-1.07
LTCNQCGFECTQKGNLLRHIKL	-0.518
FHCSVCGHAFTQKGNLLRHIKL	-0.546
FWCPICGRPFTQKGNLLRHIKL	0.473
FKCDICGARFTQKGNLLRHIKL	-1.93
FQCEICGRGFTQKGNLLRHIKL	-2.12
FCCEICGRTFTQKGNLLRHIKL	-1.93
FKCEQCGAVFTQKGNLLRHIKL	-1.64
FNCDQCGACFTQKGNLLRHIKL	-1.46
FRCPICGHYFTQKGNLLRHIKL	0.666
FCCPICGHIFTQKGNLLRHIKL	-0.12
FWCDQCGAEFTQKGNLLRHIKL	-0.688
FLCPICGHGFTQKGNLLRHIKL	-0.807
FYCNICGALFTQKGNLLRHIKL	0.593
FKCNQCGRVFTQKGNLLRHIKL	-0.432
FTCPICGHPFTQKGNLLRHIKL	0.224
FCCPICGAFFTQKGNLLRHIKL	0.646
LTCNQCGFSCTQKGNLLRHIKL	-0.993
LCCEICGFKCTQKGNLLRHIKL	-0.139
FACEVCGADFTQKGNLLRHIKL	-4.13
FSCEVCGAFFTQKGNLLRHIKL	-1.31
FTCPVCGAAFTQKGNLLRHIKL	0.0822
FECPICGAVFTQKGNLLRHIKL	0.12
LVCNQCGFTCTQKGNLLRHIKL	-1.14
FHCPVCGAEFTQKGNLLRHIKL	-0.681

Sequence	log2 fold change of degron read counts
FFCNICGAWFTQKGNLLRHIKL	0.518
FCCNVCGATFTQKGNLLRHIKL	-1.46
FFCPICGANFTQKGNLLRHIKL	0.329
FCCNICGAGFTQKGNLLRHIKL	-0.467
FCCSVCGHWFTQKGNLLRHIKL	0.669
FSCSVCGHHFTQKGNLLRHIKL	0.0262
FYCDQCGAVFTQKGNLLRHIKL	-0.154
LQCPICGFFCTQKGNLLRHIKL	1.11
FKCDVCGAFFTQKGNLLRHIKL	-2.24
FICDVCGATFTQKGNLLRHIKL	-1.97
FECDQCGALFTQKGNLLRHIKL	-2.93
FMCPICGHCFTQKGNLLRHIKL	-0.523
FTCNVCGAEFTQKGNLLRHIKL	-2.9
FACSVCGHQFTQKGNLLRHIKL	-1.79
FQCSVCGHFFTQKGNLLRHIKL	-0.374
FACDQCGAEFTQKGNLLRHIKL	-1.83
FDCDQCGADFTQKGNLLRHIKL	-0.665
FMCEQCGAVFTQKGNLLRHIKL	-1.05
FLCEVCGAWFTQKGNLLRHIKL	-0.625
FQCDQCGAFFTQKGNLLRHIKL	-1.02
FECDICGARFTQKGNLLRHIKL	-1.78
FDCPICGREFTQKGNLLRHIKL	-0.457
FMCEICGAKFTQKGNLLRHIKL	-1.03
LYCPICGFDCTQKGNLLRHIKL	1.1
LNCEICGFHCTQKGNLLRHIKL	0.707
